# Source: the supplement of paper PMC9135407
# Several values for one entry are separate records, joined by “and”; a condition that tells them apart may be missing. Identical values can stand only once. Counter-ions that a name gives are not always drawn. The campaign covered roughly 5,800 compounds. About 620 (11%) showed activity.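 The calls were made as follows: active = score above a cut-off or among the top three wells of a plate; in these data no inactive exceeds 0.85.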 Only a part is listed here, and it is no random draw.
# Tested on: primary human hepatic stellate cells (donor 1)
# Experiment: scaled lipid accumulation score (0 = DMSO-like, 1 = nortriptyline-like); higher = stronger HSC inactivation (lipid re-accumulation), active = hit call of the paper
# Conditions: 48 h
# Procedure: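 Primary lipid accumulation screen in primary human hepatic stellate cell myofibroblasts (donor 1, passage 8) in 384-well plates. 100 nL of library compound was pin-transferred into 30 µL medium in duplicate, and cells were treated for 48 h. The 'Scaled' score combines distance from plate baseline, toxicity and reproducibility penalties, and is normalised to nortriptyline (positive) and DMSO (negative) controls on each plate. A hit is defined as scaled >0.85 or among the top 3 wells per plate.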
# [1] = library stock concentration: 10 mM
# [2] = library stock concentration: 3.33 mM
# [3] = library stock concentration: 1 mM
# [4] = library stock concentration: 80 uM
# [5] = library stock concentration: 400 uM
# [6] = library stock concentration: 2 mM
smiles,measurement,setting,value
COc1cc(/C=C/C(=O)N2CCCCCCC2)cc(OC)c1OC,scaled lipid accumulation score,[1],inactive: ≤ 0
CC(C)C(=O)Oc1ccc(CO)cc1[C@H](CCN(C(C)C)C(C)C)c1ccccc1.O=C(O)C=CC(=O)O [Fesoterodine Fumarate],scaled lipid accumulation score,[1],active: 1.13
O=C(O)C1=CCCN(CCON=C(c2ccccc2)c2ccccc2)C1,scaled lipid accumulation score,[1],inactive: 0.046
O=C(O)C1=CCCN(CCON=C(c2ccccc2)c2ccccc2)C1 [NO-711 hydrochloride],scaled lipid accumulation score,[1],inactive: ≤ -0.055
Clc1ccc(N2CCN(Cc3cc4ccccn4n3)CC2)cc1,scaled lipid accumulation score,[1],inactive: ≤ 0
CC(C(=O)O)c1ccc(C(=O)c2ccccc2)s1 (configuration not stated) [Tiaprofenic acid],scaled lipid accumulation score,,inactive: ≤ 0
"CC[C@H](CO)Nc1nc(NCc2ccc(-c3ccccn3)cc2)c2ncn(C(C)C)c2n1 [CR8, (R)-Isomer]",scaled lipid accumulation score,[2],inactive: ≤ 0
O=C(O)CCC/C=C\CC1C(O)CC(O)C1/C=C/C(O)COc1cccc(Cl)c1 (configuration not stated),scaled lipid accumulation score,[1],inactive: ≤ -0.001
O=C(O)CCC/C=C\CC1C(O)CC(O)C1/C=C/C(O)COc1cccc(Cl)c1 (configuration not stated) [Cloprostenol],scaled lipid accumulation score,[3],inactive: ≤ -0.021
CCCCC[C@H](O)/C=C/C=C\CCCCCCCC(=O)O,scaled lipid accumulation score,library stock concentration: 100 uM,inactive: ≤ -0.021
NC(=O)NS(=O)(=O)c1ccc(N)cc1,scaled lipid accumulation score,[1],inactive: ≤ 0
CC(=O)N(CC(O)CN(C(C)=O)c1c(I)c(C(=O)NCC(O)CO)c(I)c(C(=O)NCC(O)CO)c1I)c1c(I)c(C(=O)NCC(O)CO)c(I)c(C(=O)NCC(O)CO)c1I (configuration not stated) [Iodixanol],scaled lipid accumulation score,,inactive: ≤ 0
O=C(Nc1ccc(I)cc1)NC1CCCCC1,scaled lipid accumulation score,[1],active: 0.938
CCCCCCCCCCCC[N+](C)(C)CCOc1ccccc1 [Domiphen Bromide],scaled lipid accumulation score,[2],inactive: 0.455
same,scaled lipid accumulation score,[1],inactive: 0.052
C=CCSCC1Nc2cc(Cl)c(S(N)(=O)=O)cc2S(=O)(=O)N1 (configuration not stated) [Althiazide],scaled lipid accumulation score,,inactive: ≤ 0
same,scaled lipid accumulation score,library stock concentration: 5.2 mM,inactive: ≤ 0
same,scaled lipid accumulation score,[1],inactive: ≤ 0
NC(=O)c1cccc(N)c1 [3-aminobenzamide (3-ABA)],scaled lipid accumulation score,library stock concentration: 36.7 mM,inactive: ≤ -0.021
NC(=O)c1cccc(N)c1 [3-aminobenzamide],scaled lipid accumulation score,[1],inactive: ≤ 0
NC(=O)c1cccc(N)c1 [3-Aminobenzamide],scaled lipid accumulation score,[2],inactive: ≤ 0
same,scaled lipid accumulation score,[1],inactive: ≤ 0
Cc1ccc(-n2nc(C(C)(C)C)cc2NC(=O)Nc2ccc(OCCN3CCOCC3)c3ccccc23)cc1 [BIRB 796 (Doramapimod)],scaled lipid accumulation score,[2],inactive: 0.017
same,scaled lipid accumulation score,[1],inactive: ≤ 0
Cc1ccc(-n2nc(C(C)(C)C)cc2NC(=O)Nc2ccc(OCCN3CCOCC3)c3ccccc23)cc1,scaled lipid accumulation score,[4],inactive: ≤ -0.009
same,scaled lipid accumulation score,[5],inactive: ≤ -0.009
same,scaled lipid accumulation score,[6],inactive: 0.044
same,scaled lipid accumulation score,[1],inactive: ≤ -0.009
CNC(=O)c1ccc(C)c(-n2c(C)cc(OCc3ccc(F)cc3F)c(Br)c2=O)c1,scaled lipid accumulation score,[4],inactive: 0.057
same,scaled lipid accumulation score,[5],inactive: 0.038
same,scaled lipid accumulation score,[6],inactive: 0.056
same,scaled lipid accumulation score,[2],inactive: 0.014
same,scaled lipid accumulation score,[1],inactive: ≤ 0 and inactive: ≤ -0.001
CCCN(CCc1ccccc1)C1CCc2c(O)cccc2C1 (configuration not stated) [(?)-PPHT hydrochloride],scaled lipid accumulation score,[1],inactive: 0.386
N#C/C(=C(/N)Sc1ccccc1N)c1cccc(C(O)c2ccncc2)c1 (configuration not stated) [MEK Inhibitor I],scaled lipid accumulation score,[2],inactive: ≤ 0
CNC(=N)NCCC[C@H](N)C(=O)O,scaled lipid accumulation score,[1],inactive: 0.076
CNC(=N)NCCC[C@H](N)C(=O)O [NG-Monomethyl-L-arginine acetate],scaled lipid accumulation score,[1],inactive: ≤ -0.002
Cc1cc(-c2ccc(/N=N/c3ccc4c(S(=O)(=O)O)cc(S(=O)(=O)O)c(N)c4c3O)c(C)c2)ccc1/N=N/c1ccc2c(S(=O)(=O)O)cc(S(=O)(=O)O)c(N)c2c1O,scaled lipid accumulation score,[1],inactive: 0.033
CCCCC[C@H](O)/C=C/[C@H]1[C@@H]2CO[C@@H](C2)[C@@H]1C/C=C\CCCC(=O)O,scaled lipid accumulation score,[3],inactive: ≤ 0
Cl.Cl.OCCN1CCN(CCCN2c3ccccc3C=Cc3ccccc32)CC1 [Opipramol dihydrochloride],scaled lipid accumulation score,[1],active: 0.885
C[C@]12CC[C@H](O)CC1=CCC1C2CC[C@]2(C)C(n3cnc4ccccc43)=CCC12 (some centres not stated) [Galeterone],scaled lipid accumulation score,[1],active: 1.27
Nc1nc(Nc2ccc(S(N)(=O)=O)cc2)nn1C(=S)Nc1c(F)cccc1F [Cdk1/2 Inhibitor III],scaled lipid accumulation score,[2],inactive: 0.782
CC1=C(/C=C/C(C)=C\C=C\C(C)=C\C(=O)O)C(C)(C)CCC1 [9-cis Retinoic acid],scaled lipid accumulation score,[3],inactive: ≤ -0.021
CC[C@H](CO)Nc1nc(NCc2ccccc2O)c2ncn(C(C)C)c2n1 [Olomoucine II],scaled lipid accumulation score,[2],inactive: 0.299
O=C(O)CCC/C=C\C[C@@H]1[C@@H](/C=C/C(F)(F)COc2ccccc2)[C@H](O)C[C@@H]1O [Tafluprost (free acid)],scaled lipid accumulation score,[3],inactive: 0.007
C[C@]1(Cn2ccnn2)[C@H](C(=O)O)N2C(=O)C[C@H]2S1(=O)=O,scaled lipid accumulation score,[1],inactive: 0.126
CCN(CC)Cc1ccc2cc(COC(=O)Nc3ccc(C(=O)NO)cc3)ccc2c1.Cl.O [Givinostat (ITF2357)],scaled lipid accumulation score,[2],active: 0.903
same,scaled lipid accumulation score,[1],active: 0.897
"CN(C)CCC(c1ccc(Br)cc1)c1ccccn1 (single isomer, unassigned; (+)) [(+)-Brompheniramine maleate]",scaled lipid accumulation score,[1],inactive: 0.351
C=CS(=O)(=O)NC1CCN(C(=O)CNc2cc(I)c(Cl)cc2OC)CC1 [K-Ras(G12C) inhibitor 9],scaled lipid accumulation score,[2],inactive: 0.381
same,scaled lipid accumulation score,[1],inactive: 0.776
CC[C@@H](CO)NCCN[C@@H](CC)CO [Ethambutol hydrochloride],scaled lipid accumulation score,library stock concentration: 7.2 mM,inactive: 0.022
same,scaled lipid accumulation score,[1],inactive: ≤ 0
CC[C@@H](CO)NCCN[C@@H](CC)CO [Ethambutol dihydrochloride],scaled lipid accumulation score,,inactive: 0.03
CC[C@@H](CO)NCCN[C@@H](CC)CO [Ethambutol HCl],scaled lipid accumulation score,[2],inactive: ≤ 0
same,scaled lipid accumulation score,[1],inactive: ≤ -0.001
CC[C@@H](CO)NCCN[C@@H](CC)CO [Ethambutol],scaled lipid accumulation score,[1],inactive: ≤ 0
CC1=C(/C=C/C(=C/C=C/C(C)=C/C(=O)O)c2ccc(C)cc2)C(C)(C)CCC1,scaled lipid accumulation score,[1],inactive: ≤ -0.001
O=C(NCCN1CCCCC1)c1ccc(I)cc1 [N-[2-(Piperidinylamino)ethyl]-4-iodobenzamide],scaled lipid accumulation score,[1],inactive: 0.428
CC(=O)OCC(=O)[C@@]1(OC(C)=O)[C@@H](C)C[C@H]2[C@@H]3C[C@H](F)C4=CC(=O)C=C[C@]4(C)[C@@]3(F)[C@@H](O)C[C@@]21C [Diflorasone Diacetate],scaled lipid accumulation score,,inactive: ≤ 0
CC(=O)OCC(=O)[C@@]1(OC(C)=O)[C@@H](C)C[C@H]2[C@@H]3C[C@H](F)C4=CC(=O)C=C[C@]4(C)[C@@]3(F)[C@@H](O)C[C@@]21C [Diflorasone diacetate],scaled lipid accumulation score,library stock concentration: 4 mM,inactive: ≤ 0
COc1cc2ncn(-c3cc(OCc4ccccc4C(F)(F)F)c(C(N)=O)s3)c2cc1OC,scaled lipid accumulation score,[1],active: 0.992
C=CCNC1=C2C[C@@H](C)C[C@H](OC)[C@H](O)[C@@H](C)C=C(C)[C@H](OC(N)=O)[C@@H](OC)C=CC=C(C)C(=O)NC(=CC1=O)C2=O [17-AAG (Tanespimycin)],scaled lipid accumulation score,[1],active: 0.873
CNCCC[C@]12CC[C@H](c3ccccc31)c1ccccc12.Cl [Maprotiline hydrochloride],scaled lipid accumulation score,,active: 0.944
"CC(N)(Cc1ccc(O)c(O)c1)C(=O)O (racemic) [(?)-3-(3,4-dihydroxyphenyl)-2-methyl-DL-alanine]",scaled lipid accumulation score,[1],inactive: 0.067
Cc1cc(C)c(S(=O)(=O)Nc2cccc(C(F)(F)F)c2)c(C)c1,scaled lipid accumulation score,[1],inactive: ≤ -0.006
CCCOc1ccc(C(=O)OCCN(CC)CC)cc1N [Proparacaine HCl],scaled lipid accumulation score,[2],inactive: ≤ 0
same,scaled lipid accumulation score,[1],inactive: ≤ 0
CCCOc1ccc(C(=O)OCCN(CC)CC)cc1N [Proparacaine hydrochloride],scaled lipid accumulation score,,inactive: ≤ 0
same,scaled lipid accumulation score,library stock concentration: 6 mM,inactive: ≤ 0
CCCOc1ccc(C(=O)OCCN(CC)CC)cc1N [Proxymetacaine],scaled lipid accumulation score,[1],inactive: 0.166
COC(=O)Nc1ccc2[nH]cc(CCNC(C)=O)c2c1,scaled lipid accumulation score,[1],inactive: 0.024
"C#CCn1c(=O)c2c(ncn2C)n(C)c1=O [3,7-Dimethyl-1-propargylxanthine]",scaled lipid accumulation score,[1],inactive: ≤ -0.07
Cn1cc(-c2ccc3c(c2)CCN3C(=O)Cc2cccc(C(F)(F)F)c2)c2c(N)ncnc21,scaled lipid accumulation score,[2],inactive: ≤ -0.009
same,scaled lipid accumulation score,[1],inactive: 0.687
Oc1cccc(-c2nc(N3CCOCC3)c3oc4ncccc4c3n2)c1,scaled lipid accumulation score,[4],inactive: 0.118
same,scaled lipid accumulation score,[5],inactive: 0.051 and inactive: ≤ -0.005
same,scaled lipid accumulation score,[3],inactive: ≤ 0
same,scaled lipid accumulation score,[6],inactive: ≤ -0.009 and inactive: ≤ -0.005
same,scaled lipid accumulation score,[2],inactive: 0.203 and inactive: 0.016
same,scaled lipid accumulation score,[1],inactive: 0.796 and inactive: 0.279
CCN(CC)CCCC(C)Nc1c2ccc(Cl)cc2nc2ccc(OC)cc12 (configuration not stated) [Quinacrine 2HCl dihydrate],scaled lipid accumulation score,library stock concentration: 5 mM,active: 0.876
CC(=O)OCC(=O)[C@H]1CC[C@H]2[C@@H]3CCC4=CC(=O)CC[C@]4(C)[C@H]3CC[C@]12C [Desoxycorticosterone acetate],scaled lipid accumulation score,library stock concentration: 5.4 mM,inactive: ≤ -0.001
same,scaled lipid accumulation score,[1],inactive: 0.053
Cc1cc(SCc2sc(-c3ccc(C(F)(F)F)cc3)nc2C)ccc1OCC(=O)O,scaled lipid accumulation score,[4],inactive: 0.028
same,scaled lipid accumulation score,[5],inactive: ≤ -0.001
same,scaled lipid accumulation score,[6],inactive: ≤ -0.001
same,scaled lipid accumulation score,[1],inactive: 0.119
N=C(N)NCCN1CCCCCCC1 [Guanethidine sulfate],scaled lipid accumulation score,,inactive: ≤ 0
same,scaled lipid accumulation score,library stock concentration: 6.7 mM,inactive: 0.022
same,scaled lipid accumulation score,[1],inactive: ≤ 0
CC(C)CCCC(C)NC(C)C (configuration not stated),scaled lipid accumulation score,[1],inactive: ≤ 0
